In PubChem BioAssay (NCI) one finds GI50 and TGI data, which are given here for 5 compounds.

The subject of this assay is NCI-H322M lung. Description: NCI tumour cell line growth inhibition, 48 h.

Each structure is given as a SMILES string.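 Values below derive from 48-hour exposures of cells grown in 96-well plates, with endpoints linearly interpolated between the two concentrations bracketing the appropriate inhibition level. GI50 marks 50% less growth. Definition used: TGI = concentration required for complete inhibition of growth.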

On to `O=c1[nH]c2ccccc2cc1CSc1ccc(Nc2nccc(-c3ccc(C(F)(F)F)cc3)n2)cc1`, for which the GI50 is 2.77 µM and the TGI worked out at 16.8 µM.
For `CN(C)c1nc(NCCNS(=O)(=O)c2ccc(C(=O)/C=C/c3ccc(C(F)(F)F)cc3)cc2)nc(N2CCOCC2)n1`, in that order: 14.2 µM and 27.2 µM.
For `NC(=Nc1ccc(OCCCCCCCCn2cnnn2)cc1)c1ccccc1` the same measures were 0.637 µM and greater than 100 µM.
As for `Cn1cc(-c2nc(N)nnc2-c2c[nH]c3ccccc23)c2cc(Br)cnc21`, the GI50 is 0.121 µM and the TGI stood at 16 µM.
For `COc1ccc(CN2[C@@H](C(=O)NCc3ccc(C(=O)NO)cc3)Cc3c([nH]c4ccccc34)[C@@H]2C2CC2)cc1` the same measures were 4.25 µM and greater than 19.8 µM.
